# In PubChem BioAssay AID686979 (National Center for Advancing Translational Sciences (NCATS), 2013):
# Hit rate of the full screen: of about 420,000 compounds, about 50,000 (12%) were called active. Inconclusive results, whose numbers are uncertain, are shown with a selection of clear calls. Calls come from the whole dose curve; as a rule, active = well fitted inhibition curve with a large enough effect; inconclusive = small, poorly fitted or top-dose-only effect; inactive = flat fitted curve, though single readings scatter. No potency is given beside an inconclusive call; the fits are too rough.
# Test: qHTS for Inhibitors of human tyrosyl-DNA phosphodiesterase 1 (TDP1): qHTS in cells in presence of CPT; note: nearly all actives have a fitted effect of over 55% in size
# Settings: chicken DT40 Tdp1-/-;hTDP1 cells + 20 nM CPT, ATP luminescence, 48 h; activity change, negative = growth inhibition: at 46.2 µM (top of the series) unless noted
# Procedure, shortened: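 Cell growth measured by CellTiter-Glo luminescence after a minimum 48 h, 37 C compound exposure with 20 nM CPT in Tdp1-knockout DT40 cells stably expressing hTDP1, seeded 400/well; qHTS titration format.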
# % is set by controls: 0 for no effect and ±100 for the full control effect; potency is the fitted concentration of half-maximal effect; tags give direction and shape of the fitted curve.
Structure (SMILES),Potency,"activity change, negative = growth inhibition"
Cc1ccc(NC(=O)c2cnc(N3CCCCC3)c3ccccc23)c(C)c1,"inconclusive [inhibitor, partial curve]",–
CC(=O)Nc1ccc(/C=N/NC(=O)c2cc(-c3ccco3)nc3ccccc23)cc1,–,inactive: -24%
CCCN1CCN(C(=O)Cn2c(-c3cccs3)cc3ccccc32)CC1,"inconclusive [inhibitor, single point]",–
CC(C)(C)c1ccc(C(=O)Nc2ccccc2Cl)cc1,"inconclusive [inhibitor, single point]",–
COc1ccc(OC)c(C(=O)NC(CC(N)=O)c2ccc(N3CCCCCC3)c([N+](=O)[O-])c2)c1 (stereo not drawn),"inconclusive [inhibitor, partial curve]",–
C[C@H](CO)N1C[C@H](C)[C@@H](CN(C)C(=O)Nc2ccc(C(F)(F)F)cc2)Oc2ccc(NC(=O)Cc3ccccc3)cc2C1=O,"inconclusive [inhibitor, single point]",–
Cc1cc(F)ccc1N1CCC(N2CCN(C(C)C)C(CCO)C2)CC1 (stereo not drawn),"inconclusive [inhibitor, single point]",–
O=C(NCCS(=O)(=O)N1CCN(c2ccccc2F)CC1)c1cccc(Br)c1,–,inactive: -14.4%
C=CCNC(=S)Nc1ccc(N(C)C)cc1,"inconclusive [inhibitor, single point]",–
CCOc1ccccc1CNC(=O)c1ccc(N2Cc3ccccc3Oc3ncccc32)s1,"inconclusive [inhibitor, single point]",–
CCC1(C)CC(c2nc(-c3ccc(OC)cc3)cs2)CCS1 (stereo not drawn),–,inconclusive: -33.2% [inhibitor]
COc1cccc(NC(=O)CN2C(=O)CSc3ccc(S(=O)(=O)N4CCCC4)cc32)c1,"inconclusive [inhibitor, single point]",–
CCOC(=O)c1cc2cc(OC)ccc2n1C1CCN(CCc2ccccc2)CC1,"inconclusive [inhibitor, single point]",–
Cc1ccc(C(=O)NC(=S)Nc2cccc3c(C)cc(C)nc23)cc1,"inconclusive [inhibitor, single point]",–
CCN1C(=O)c2ccccc2Sc2ccc(C(=O)NC(C)C)cc21,–,inactive: 1.39%
CCC(=O)NC(NC(=S)Nc1cccc2cccnc12)C(Cl)(Cl)Cl (stereo not drawn),active: 18.4 µM,–
Cc1ccc(CNC(=O)c2cccn2-c2nnc(N3CCCC3)s2)cc1,"inconclusive [inhibitor, single point]",–
CN(c1ccccc1)S(=O)(=O)c1cccc(C(=O)Nc2cccc(C(=O)NC3CC3)c2)c1,"inconclusive [inhibitor, single point]",–
